We go through six molecules from article PMC5087658, “Essential role of the Dishevelled DEP domain in a Wnt-dependent human-cell-based complementation assay” (Journal of Cell Science, 2016).

Chains of the proteins cited; added tags and fusions are not shown. Residues count along the entry.
UniProt Q13467, residues 27-585: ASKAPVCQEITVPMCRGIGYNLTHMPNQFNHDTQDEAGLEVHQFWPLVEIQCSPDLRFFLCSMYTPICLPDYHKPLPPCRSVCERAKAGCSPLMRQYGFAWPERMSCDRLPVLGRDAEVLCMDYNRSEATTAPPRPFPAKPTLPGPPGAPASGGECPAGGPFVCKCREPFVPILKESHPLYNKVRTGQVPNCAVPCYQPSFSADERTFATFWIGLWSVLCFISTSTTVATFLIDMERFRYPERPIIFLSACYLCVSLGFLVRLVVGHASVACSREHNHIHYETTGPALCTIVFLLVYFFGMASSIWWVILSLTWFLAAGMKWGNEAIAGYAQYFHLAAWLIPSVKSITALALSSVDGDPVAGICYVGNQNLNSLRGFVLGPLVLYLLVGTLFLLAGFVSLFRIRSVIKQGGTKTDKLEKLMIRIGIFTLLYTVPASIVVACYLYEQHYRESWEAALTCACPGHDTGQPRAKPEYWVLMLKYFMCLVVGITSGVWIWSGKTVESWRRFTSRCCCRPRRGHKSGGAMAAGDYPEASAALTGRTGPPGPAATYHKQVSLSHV

These are yes or no findings as the source states them, for the method shown. Some binding calls cover weakened binding; strength is not graded here. For some of these results: Sequences can lack the tags named with a protein.

One assay addresses SNAP–FZD5 (UniProt Q13467). Description: recruitment assay (GFP fusion recruited to membrane-associated SNAP–FZD5 in co-transfected cells, confocal microscopy); co-overexpression of DVL2–GFP or DEP–GFP with SNAP–FZD5 in HEK293T cells; 100 cells scored for DEP–GFP.
Assay [1] addresses T1, DVL2 PDZ domain (PDZ_(265-361)), wt, 15N-labelled (human) (UniProt O14641).
T1 sequence (chain, 15N-labelled): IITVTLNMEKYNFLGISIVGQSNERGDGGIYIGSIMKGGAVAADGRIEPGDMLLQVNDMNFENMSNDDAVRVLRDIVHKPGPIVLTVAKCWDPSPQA
Put plainly: NMR titration; 1H-15N correlation spectra (fast-HSQC or BEST-TROSY) of 100 µM 15N-PDZ alone or with 3x molar excess (300 µM) of DVL-C or Lip–FZD peptide; 298 K, aqueous phosphate buffer at physiological ionic strength, pH 6.7; both purified.

The target of assay [2] is T2, DVL2 PDZ domain (PDZ_(265-361)) D331A R338A (DARA), 15N-labelled (human) (UniProt O14641).
T2 sequence (chain, 15N-labelled): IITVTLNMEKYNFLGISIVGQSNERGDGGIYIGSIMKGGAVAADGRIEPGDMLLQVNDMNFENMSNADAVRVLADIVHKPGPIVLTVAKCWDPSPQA
The description is as above.

In assay [3] the target is T3, DVL2 PDZ domain (PDZ_(265-361)) V334E, 15N-labelled (human) (UniProt O14641).
T3 sequence (chain, 15N-labelled): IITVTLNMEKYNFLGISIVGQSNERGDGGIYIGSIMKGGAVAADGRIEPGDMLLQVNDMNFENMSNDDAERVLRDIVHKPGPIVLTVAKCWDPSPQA
The assay is described as above.

B1: human DVL2–GFP, full length, V334E (protein, UniProt O14641 1-736)
chain: MAGSSTGGGGVGETKVIYHLDEEETPYLVKIPVPAERITLGDFKSVLQRPAGAKYFFKSMDQDFGVVKEEISDDNARLPCFNGRVVSWLVSSDNPQPEMAPPVHEPRAELAPPAPPLPPLPPERTSGIGDSRPPSFHPNVSSSHENLEPETETESVVSLRRERPRRRDSSEHGAGGHRTGGPSRLERHLAGYESSSTLMTSELESTSLGDSDEEDTMSRFSSSTEQSSASRLLKRHRRRRKQRPPRLERTSSFSSVTDSTMSLNIITVTLNMEKYNFLGISIVGQSNERGDGGIYIGSIMKGGAVAADGRIEPGDMLLQVNDMNFENMSNDDAERVLRDIVHKPGPIVLTVAKCWDPSPQAYFTLPRNEPIQPIDPAAWVSHSAALTGTFPAYPGSSSMSTITSGSSLPDGCEGRGLSVHTDMASVTKAMAAPESGLEVRDRMWLKITIPNAFLGSDVVDWLYHHVEGFPERREARKYASGLLKAGLIRHTVNKITFSEQCYYVFGDLSGGCESYLVNLSLNDNDGSSGASDQDTLAPLPGATPWPLLPTFSYQYPAPHPYSPQPPPYHELSSYTYGGGSASSQHSEGSRSSGSTRSDGGAGRTGRPEERAPESKSGSGSESEPSSRGGSLRRGGEASGTSDGGPPPSRGSTGGAPNLRAHPGLHPYGPPPGMALPYNPMMVVMMPPPPPPVPPAVQPPGAPPVRDLGSVPPELTASRQSFHMAMGNPSEFFVDVM
Consider B1, for which, in the assay with SNAP–FZD5, the binding result is given as “binds”.

B2: human DVL2–GFP, full length, L445E (protein, UniProt O14641 1-736)
chain: MAGSSTGGGGVGETKVIYHLDEEETPYLVKIPVPAERITLGDFKSVLQRPAGAKYFFKSMDQDFGVVKEEISDDNARLPCFNGRVVSWLVSSDNPQPEMAPPVHEPRAELAPPAPPLPPLPPERTSGIGDSRPPSFHPNVSSSHENLEPETETESVVSLRRERPRRRDSSEHGAGGHRTGGPSRLERHLAGYESSSTLMTSELESTSLGDSDEEDTMSRFSSSTEQSSASRLLKRHRRRRKQRPPRLERTSSFSSVTDSTMSLNIITVTLNMEKYNFLGISIVGQSNERGDGGIYIGSIMKGGAVAADGRIEPGDMLLQVNDMNFENMSNDDAVRVLRDIVHKPGPIVLTVAKCWDPSPQAYFTLPRNEPIQPIDPAAWVSHSAALTGTFPAYPGSSSMSTITSGSSLPDGCEGRGLSVHTDMASVTKAMAAPESGLEVRDRMWEKITIPNAFLGSDVVDWLYHHVEGFPERREARKYASGLLKAGLIRHTVNKITFSEQCYYVFGDLSGGCESYLVNLSLNDNDGSSGASDQDTLAPLPGATPWPLLPTFSYQYPAPHPYSPQPPPYHELSSYTYGGGSASSQHSEGSRSSGSTRSDGGAGRTGRPEERAPESKSGSGSESEPSSRGGSLRRGGEASGTSDGGPPPSRGSTGGAPNLRAHPGLHPYGPPPGMALPYNPMMVVMMPPPPPPVPPAVQPPGAPPVRDLGSVPPELTASRQSFHMAMGNPSEFFVDVM
In the case of B2, the binding entry with SNAP–FZD5 is on record as “no binding”.

B3: human DVL2–GFP, full length, K446M (protein, UniProt O14641 1-736)
chain: MAGSSTGGGGVGETKVIYHLDEEETPYLVKIPVPAERITLGDFKSVLQRPAGAKYFFKSMDQDFGVVKEEISDDNARLPCFNGRVVSWLVSSDNPQPEMAPPVHEPRAELAPPAPPLPPLPPERTSGIGDSRPPSFHPNVSSSHENLEPETETESVVSLRRERPRRRDSSEHGAGGHRTGGPSRLERHLAGYESSSTLMTSELESTSLGDSDEEDTMSRFSSSTEQSSASRLLKRHRRRRKQRPPRLERTSSFSSVTDSTMSLNIITVTLNMEKYNFLGISIVGQSNERGDGGIYIGSIMKGGAVAADGRIEPGDMLLQVNDMNFENMSNDDAVRVLRDIVHKPGPIVLTVAKCWDPSPQAYFTLPRNEPIQPIDPAAWVSHSAALTGTFPAYPGSSSMSTITSGSSLPDGCEGRGLSVHTDMASVTKAMAAPESGLEVRDRMWLMITIPNAFLGSDVVDWLYHHVEGFPERREARKYASGLLKAGLIRHTVNKITFSEQCYYVFGDLSGGCESYLVNLSLNDNDGSSGASDQDTLAPLPGATPWPLLPTFSYQYPAPHPYSPQPPPYHELSSYTYGGGSASSQHSEGSRSSGSTRSDGGAGRTGRPEERAPESKSGSGSESEPSSRGGSLRRGGEASGTSDGGPPPSRGSTGGAPNLRAHPGLHPYGPPPGMALPYNPMMVVMMPPPPPPVPPAVQPPGAPPVRDLGSVPPELTASRQSFHMAMGNPSEFFVDVM
For the molecule B3, the binding entry in the assay with SNAP–FZD5 is “no binding”.

B4: human DVL2–GFP, full length, D331A R338A (DARA) (protein, UniProt O14641 1-736)
chain: MAGSSTGGGGVGETKVIYHLDEEETPYLVKIPVPAERITLGDFKSVLQRPAGAKYFFKSMDQDFGVVKEEISDDNARLPCFNGRVVSWLVSSDNPQPEMAPPVHEPRAELAPPAPPLPPLPPERTSGIGDSRPPSFHPNVSSSHENLEPETETESVVSLRRERPRRRDSSEHGAGGHRTGGPSRLERHLAGYESSSTLMTSELESTSLGDSDEEDTMSRFSSSTEQSSASRLLKRHRRRRKQRPPRLERTSSFSSVTDSTMSLNIITVTLNMEKYNFLGISIVGQSNERGDGGIYIGSIMKGGAVAADGRIEPGDMLLQVNDMNFENMSNADAVRVLADIVHKPGPIVLTVAKCWDPSPQAYFTLPRNEPIQPIDPAAWVSHSAALTGTFPAYPGSSSMSTITSGSSLPDGCEGRGLSVHTDMASVTKAMAAPESGLEVRDRMWLKITIPNAFLGSDVVDWLYHHVEGFPERREARKYASGLLKAGLIRHTVNKITFSEQCYYVFGDLSGGCESYLVNLSLNDNDGSSGASDQDTLAPLPGATPWPLLPTFSYQYPAPHPYSPQPPPYHELSSYTYGGGSASSQHSEGSRSSGSTRSDGGAGRTGRPEERAPESKSGSGSESEPSSRGGSLRRGGEASGTSDGGPPPSRGSTGGAPNLRAHPGLHPYGPPPGMALPYNPMMVVMMPPPPPPVPPAVQPPGAPPVRDLGSVPPELTASRQSFHMAMGNPSEFFVDVM
On to B4, for which the binding entry with SNAP–FZD5 is listed as “binds”.

B5: Lipoyl (Lip)-tagged peptide spanning the KTxxxW motif from FZD5 (peptide)
chain: GKTLESWRRFTS
Regarding B5, the binding result in assay [1] was “no binding (tested: 300 µM Lip–FZD5 with 100 µM PDZ)”.

B6: C-terminal peptide from Dvl1 (DVL-C) (peptide)
peptide: SEFFVDVM
notes: C-terminal peptide of Dishevelled 1 (Dvl1); Lee et al., 2015; also called DVL-C peptide; source: kindly provided by Jie Zheng (University of California, Los Angeles)
As to B6, the binding entry is reported as “binds weakly” in assay [2] and “no binding (tested: 300 µM DVL-C with 100 µM PDZ)” in assay [3].
